From PubChem BioAssay AID1508623 (National Center for Advancing Translational Sciences (NCATS), 2021) come the findings set out here.

The structures appear in SMILES notation. In all, about 48,000 compounds went through this assay and about 450 (0.94%) were called active. Inconclusive results (about 19%) are left out. Calls come from the whole dose curve; as a rule, active = well fitted inhibition curve with a large enough effect; inconclusive = small, poorly fitted or top-dose-only effect; inactive = no such curve, though single readings can be large or run the other way. The list shows a part of the results.

The nature of this test: Primary qHTS for Identification of Small Molecule Inhibitors of Huntingtin Promoter Activity. Note: nearly all actives have a fitted effect of over 50% in size. The note with it: HEK293 HTT promoter firefly luciferase reporter (activity 0% = vehicle and -100% = no light), 24 h; series mostly up to 57.5 µM; activity change, negative = inhibition: at the top concentration. In a few lines:
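HEK293 cells carrying firefly luciferase reporters were seeded at 2,500 per well in Opti-MEM and cultured for 24 h. They were then treated with compounds at up to 57.5 uM final for 24 h at 37 degrees C before Dual-Glo luminescence readout.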
For orientation: Quantitative high-throughput screening tests each substance at several concentrations.
`CCOc1ccccc1NC(=O)CN1C(=O)COc2ccc(S(=O)(=O)N3CCOCC3)cc21`: the “activity change, negative = inhibition” value is inactive: -1.5%.
As for `Cc1cc(C)n(C(C)CC(=O)Nc2cccc(C(F)(F)F)c2)n1` (centres undefined), the “activity change, negative = inhibition” value was inactive: -9.62%.
On to `O=C(Nc1cc(-c2nc3ccccc3o2)ccc1Cl)c1sc2c([N+](=O)[O-])cccc2c1Cl`, for which the “activity change, negative = inhibition” value is inactive: 4.05%.
The result for `CC(C)(C)OC(=O)N1CCC(c2c(C(=O)NCc3cccc(Cl)c3)cnn2-c2ccc(F)cc2)CC1` reads inactive: -17.5%; that for `COc1cc(/C=C(\C#N)C(=O)NCC2CCCO2)ccc1O` (centres undefined), inactive: 10.7%.
The result for `CCc1ccccc1NC(=O)CSc1nc(-c2cccc(Cl)c2)nc2c1Cc1c(CO)cnc(C)c1O2` reads inactive: -2.58%; that for `Cc1ccccc1C(=O)Nc1nnc(S(=O)(=O)N(C)Cc2ccccc2)s1`, inactive: -26.3%.
The result for `COc1ccc(-n2c(-c3ccc(C)cc3)cc3c2CC(C)(C)CC3=O)cc1Cl` reads inactive: 4.27%; that for `CC1CCN(C(=O)Cn2c(=O)n(CC3CCC(C(=O)NC(C)C)CC3)c(=O)c3sccc32)CC1` (centres undefined), inactive: -4.24%.
Regarding `O=C(NCCCN1CCCCC1)c1sc2ncccc2c1-n1cccc1`, the “activity change, negative = inhibition” value is inactive: 18%.
The result for `CC(C)c1ccc(Cn2c(COc3ccccc3)nc3ccccc32)cc1` reads inactive: 1.49%; that for `COc1ccc(S(=O)(=O)NCC(c2ccco2)S(=O)(=O)c2ccc(C)cc2)cc1F` (centres undefined), inactive: -23.4%.
The result for `CCn1nc(C)c2c(-c3ccccc3)cc(=O)n(C(C)C(=O)NCCC(C)C)c21` (centres undefined) reads inactive: 0%; that for `CC(=O)Nc1ccc(NC(=O)CCc2nc3cccnc3n2Cc2cccs2)cc1`, inactive: -17%.
The result for `Cc1ccc(C(=O)Nc2ccc3c(c2)n(C)c(=O)c(=O)n3C)cc1` reads inactive: 6.56%; that for `Cc1ccc(NC(=O)Cn2nc(C(=O)Nc3ccc(C)cc3)ccc2=O)cc1`, inactive: -13.1%.
As for `Cc1ccc(NC(=O)Cn2c(=O)n(Cc3nc(-c4ccccc4)no3)c(=O)c3cc4c(cc32)OCO4)cc1F`, the “activity change, negative = inhibition” value was inactive: 3.73%.
Take `CCOc1ccc(CCNC(=O)C2CCN(C(=O)N3CC(CC)Oc4ccccc43)CC2)cc1` (centres undefined): the “activity change, negative = inhibition” value is inactive: 5.84%.
The result for `CCCCN(CC)CCCNC(=O)CS(=O)(=O)Cc1nc(-c2ccc(C)cc2)oc1C` reads inactive: -12.1%.
The result for `CCCOc1ccc(C(=O)Nc2ccc3oc(-c4ccncc4)nc3c2)cc1` reads inactive: -10.1%; that for `O=C(Nc1nnc(N2CCCCCC2)s1)Nc1cc(F)ccc1F`, inactive: 0.514%; that for `CCOCCCN(Cc1ccco1)S(=O)(=O)c1cc2c(cc1Cl)NC(=O)CO2`, inactive: -7.4%.
The result for `Cn1nnc2c(N3CCN(c4cccc(Cl)c4)CC3)ncnc21` reads inactive: -18.3%; that for `COCCCNC(=O)c1c(NC(=O)Cc2coc3c(C)c(C)ccc23)sc2c1CCCC2`, inactive: -20.2%.
In the case of `COc1cccc(CNC(=O)CCS(=O)(=O)c2ccc3c(c2)oc(=O)n3C)c1`, the activity change, negative = inhibition was inactive: 53.6% [at 11.5 µM].
The result for `CCC(Sc1nnc2c(n1)[nH]c1ccccc12)C(=O)Nc1nnc(C(C)C)s1` (centres undefined) reads inactive: -8.8%; that for `CCCCOC(=O)c1c(N)n(-c2ccc(OC)cc2OC)c2nc3ccccc3nc12`, inactive: -2.71%; that for `Cc1ccc(C(=O)c2cc(O)c(O)c([N+](=O)[O-])c2)cc1`, “inactive”.
Take `CCOc1ccc(C(=O)NCc2ccc3c(c2)CCN3C(=O)c2ccc(Cl)cc2)cc1`: the “activity change, negative = inhibition” value is inactive: -1.24%.
Consider `O=C(NC1CC(=O)N(c2cccc(F)c2)C1)c1cccs1` (centres undefined), for which the “activity change, negative = inhibition” value was inactive: -1.55%.
The result for `Cc1cccc(-n2ncc(C(=O)N3CCOCC3)c2C2CCN(C(=O)OC(C)(C)C)CC2)c1` reads inactive: 3.78%; that for `CC(C)N(C(=O)Cn1cc(SCC(=O)Nc2ccccc2F)c2ccccc21)C(C)C`, inactive: -29.8%.
The result for `CC(C)C(=O)Nc1ccc2nc(SCC(=O)N3CCCC3)sc2c1` reads inactive: 21.4%; that for `CCCN(C(=O)c1cc2c(=O)oc3ccccc3c2s1)c1ccc(CC)cc1`, inactive: -13.2%.
The result for `CCc1ccc(OCC(=O)NC(Cc2c[nH]c3ccccc23)C(=O)O)cc1` (centres undefined) reads inactive: -10.6%.
Regarding `Cc1c(Cl)cccc1NC(=O)N1CCN(C(=O)c2nsc3ccccc23)CC1`, the “activity change, negative = inhibition” value is inactive: -21.3%.
The result for `Cc1ccccc1Nc1cc(C(=O)NCCCN2CCN(c3cccc(Cl)c3)CC2)c2ccccc2n1` reads inactive: -18.2%.
The result for `CCc1ccc(NC(=O)c2ccc(CN3CC(=O)N4CCCCC4C3=O)cc2)cc1` (centres undefined) reads inactive: -29.5%.
Regarding `Cc1ccc(C(C)C)c(OCCSc2nc(-c3ccccc3F)nc3cc(=O)[nH]n23)c1`, the “activity change, negative = inhibition” value was inactive: -4.23%.
For the compound `COc1cccc(-n2c(=O)c3c(C)c(C)sc3n(CC(=O)NCCc3ccc(OC)c(OC)c3)c2=O)c1`, the “activity change, negative = inhibition” value was inactive: -2.44%.
The result for `COc1ccc(OC)c(NC(=O)CSc2ccc(-c3cccs3)nn2)c1` reads inactive: -24.3%; that for `COc1cc(OC)c(NC(=O)C2CCN(S(=O)(=O)c3c(C)noc3/C=C/c3c(C)cc(C)cc3C)CC2)cc1Cl`, inactive: -8.33%; that for `CN(Cc1ccccc1)C(=O)c1cn(C)c2ccc(S(=O)(=O)N3CCCCC3)cc2c1=O`, inactive: -19.2%.
The result for `COc1cccc(OCc2nc3ccccc3n2CCOc2ccc(C)cc2)c1` reads inactive: -20.3%; that for `COc1ccc2[nH]cc(CCNC(C)=O)c2c1`, “inactive”.
With `CC12CN3CC(c4ccccc4)(CN(C1)C3c1ccc(O)cc1)C2=O` (centres undefined), the “activity change, negative = inhibition” value is inactive: 8.45%.
The result for `Cn1c(=O)oc2cc(S(=O)(=O)NC(Cc3ccccc3)C(=O)Nc3ccc(F)cc3)ccc21` (centres undefined) reads inactive: -23.9%; that for `CCOC(=O)c1c(NC(=O)C(C)Sc2cn(CCNC(=O)c3c(F)cccc3F)c3ccccc23)sc2c1CCC2` (centres undefined), inactive: -20.9%; that for `Cc1ccc(Sc2c(C)nn(-c3ccccc3)c2OC(=O)C(C)(C)C)cc1`, inactive: -10.5%.
The result for `COc1ccc(OC)c(NS(=O)(=O)c2cc3c(cc2Cl)N(C(C)=O)CCO3)c1` reads inactive: -16.8%; that for `CCOc1ccc(NC(=O)CC2C(=O)N(c3ccc(F)cc3)C(=O)N2Cc2ccc(OC)c(OC)c2)cc1` (centres undefined), inactive: -15.2%; that for `COC(=O)c1c(NC(=O)C(C)Oc2ccc(Cl)c(C)c2)sc(C)c1C` (centres undefined), inactive: -15.4%.
`CCN1C(=O)c2ccccc2S(=O)c2ccc(C(=O)NCc3ccc(OC)cc3)cc21` (centres undefined): the “activity change, negative = inhibition” value was inactive: -0.989%.
The result for `O=C(CSc1nc2cc(C(=O)NC3CCCC3)ccc2c(=O)n1CC1CCCO1)c1cccc(Cl)c1` (centres undefined) reads inactive: -21.7%; that for `COc1ccccc1NC(=O)CSc1nnc(N)s1`, inactive: -3.83%.
Regarding `COc1ccc(CCNc2oc(/C=C/c3cc(OC)c(OC)c(OC)c3)nc2C#N)cc1OC`, the “activity change, negative = inhibition” value is inactive: -5.83%.
The result for `CN(C)c1ccc(CN(Cc2ccco2)C(=O)c2ccc(C(C)(C)C)cc2)cc1` reads inactive: -28.9%; that for `Cc1ccc(-c2nc3nc(C)cc(N4CCN(c5cccc(C)c5C)CC4)n3n2)cc1`, inactive: 3.31%.
The result for `Cc1oc(-c2cccc(Cl)c2)nc1CSc1nncn2c1cc1occc12` reads inactive: -1.02%; that for `CCc1ccc(CNC(=O)c2cc(=O)[nH]c3ccc(S(=O)(=O)N4CCCCC4)cc23)cc1`, inactive: -1.39%.
Turning to `Cc1c(Cl)ccc2sc(N3CCN(C(=O)C(C)C)CC3)nc12`, the “activity change, negative = inhibition” value is inactive: -20.6%.
The result for `CCOC(=O)c1c(C)oc2nc(C)nc(Nc3ccc(C)c(Cl)c3)c12` reads inactive: -6.54%; that for `CCOC(=O)c1c(NC(=O)c2cc(C(C)C)on2)sc(C(C)=O)c1C`, inactive: 6.14%.
The result for `COc1ccc(OCC(=O)Nc2nnc(S(=O)(=O)N3CCc4ccccc43)s2)cc1` reads inactive: -7.25%.
The result for `CCOc1ccc(C(=O)/C=C/c2cn(CC(O)CN3CCCCCC3)c3ccccc23)cc1` (centres undefined) reads inactive: -4.85%; that for `CCOC(=O)c1ccccc1NC(=O)C1CCN(c2ncnc3c2nc2n3CCCCC2)CC1`, inactive: -11.7%; that for `CCOc1ccc(C(=O)c2cn(CC(=O)Nc3ccc(OC)cc3)c3cc4c(cc3c2=O)OCCO4)cc1`, inactive: 2.16%.
As to `COc1ccc2[nH]c(=O)c(CN(C(=O)c3cccc(Cl)c3)c3ccccc3C)cc2c1`, the “activity change, negative = inhibition” value was inactive: -15.4%.
The result for `Cc1cc2nnc(SCc3ccc(F)cc3)n2c2ccccc12` reads inactive: -4.16%; that for `CC(C)CCn1c(=O)c2cccnc2n(CC(=O)Nc2ccc(F)cc2)c1=O`, inactive: -21.2%; that for `CC1CN(c2ccc(Cl)cc2)c2nc3c(c(=O)n(CC(=O)O)c(=O)n3C)n2C1` (centres undefined), inactive: -0.344%.
The result for `COc1ccc2occ(CC(=O)Nc3ccc(S(=O)(=O)Nc4nccc(C)n4)cc3)c2c1` reads inactive: -15.5%; that for `Cc1ccc(CNC(=O)c2sc3nc[nH]c(=O)c3c2C)cc1`, inactive: -10.4%.
On to `CN1CCN(C2(CNC(=O)c3ccc(C(C)(C)C)cc3)CCCCC2)CC1`, for which the “activity change, negative = inhibition” value is inactive: -12.2%.
With `C#CCn1c(C2CC(=O)N(c3ccc(OC)cc3)C2)nc2ccccc21` (centres undefined), the “activity change, negative = inhibition” value was inactive: -10%.
The result for `COc1cccc(CNC(=O)Cn2c(=O)ccc3cc(S(=O)(=O)N4CCC(C)CC4)ccc32)c1` reads inactive: -15%; that for `COc1ccc(-n2c3c(c(=O)[nH]c2=O)C(NC(=O)c2ccccc2Cl)(C(F)(F)F)C(=O)N3)cc1` (centres undefined), inactive: -8.81%; that for `COc1cccc(C(=O)NCc2ccc3c(c2)CCN3C(=O)c2ccncc2)c1`, inactive: -1.52%.
With `COc1ccccc1-c1nc(SCC(=O)c2ccccc2)n[nH]1`, the “activity change, negative = inhibition” value was inactive: 6.79%.
The result for `COc1ccc(CNc2nc(SCc3ccc(Cl)cc3)nc3ccccc23)cc1` reads inactive: 9.2%; that for `CCCCCN1C(C(=O)c2ccccc2)=C(NC(=O)c2ccc(OC)cc2)c2ccccc2S1(=O)=O`, inactive: -14.9%; that for `Cc1cc(C)c(NC(=O)C(C)n2c(=O)c(C(F)(F)F)nc3ccccc32)c(C)c1` (centres undefined), inactive: -26.1%.
In the case of `CCOC(=O)CC(NC(=O)CCc1c(C)nc2c(c(C)nn2-c2ccc(C)c(C)c2)c1C)c1ccc(C)cc1` (centres undefined), the “activity change, negative = inhibition” value is inactive: -13.2%.
Take `Cc1cc(C)cc(OCC(=O)Nc2nc3c(s2)CC(C(C)(C)C)CC3)c1` (centres undefined): the “activity change, negative = inhibition” value was inactive: -18.2%.
The result for `Cc1cccc(-n2ncc(C(=O)N3CCN(C4CCCCC4)CC3)c2C2CCN(C(=O)OC(C)(C)C)CC2)c1` reads inactive: -6.94%; that for `COc1ccc(OC)c2sc(NC(=O)c3ccc(S(=O)(=O)N4CCCC4)cc3)nc12`, inactive: -11.1%; that for `CC(NC(=O)c1ccc2c(c1)CCN2S(C)(=O)=O)c1ccccc1` (centres undefined), inactive: -8.52%.
The result for `Cc1ccc(CNC(=O)c2ccc3c(c2)nc(C)n3-c2cccc(F)c2)cc1` reads inactive: -5.47%; that for `CCOc1ccc(NC(=O)CSC2=Nc3ccccc3C3=NC(CCC(=O)NCc4ccccc4)C(=O)N23)cc1` (centres undefined), inactive: -10.6%.
The result for `Cc1cc(C(F)(F)F)n2nc(-c3ccc(Br)cc3)cc2n1` reads inactive: -6.77%; that for `CCCCOc1ccc(-c2nn(-c3ccccc3)cc2C2NC(=O)NC(C)=C2C(=O)OCC)cc1` (centres undefined), inactive: -2.29%.
As for `COc1ccc(OCC(=O)NCc2ccc3c(c2)CCN3C(=O)c2ccccc2)cc1`, the “activity change, negative = inhibition” value was inactive: -24.7%.
The result for `O=C(c1cc2ccccc2oc1=O)N1CCN(c2ccc(Cl)cc2)CC1` reads inactive: -23.8%.
With `O=C(NCCc1ccccc1)c1cnc2sc(N3CCCCCC3)nn2c1=O`, the “activity change, negative = inhibition” value was inactive: 18.5%.
